Results reported in PubChem BioAssay AID504832 (National Center for Advancing Translational Sciences (NCATS), 2011).
Hit rate of the full screen: of about 310,000 compounds, about 18,000 (5.8%) were called active. Inconclusive results, whose numbers are uncertain, are shown with a selection of clear calls. Calls follow the shape of the dose curve; as a rule, active = well fitted inhibition curve with a large enough effect; inconclusive = small, poorly fitted or top-dose-only effect, or another doubt; inactive = no such curve, though single readings can be large or run the other way. No potency is given beside an inconclusive call; the fits are too rough.

Experiment: Primary qHTS for delayed death inhibitors of the malarial parasite plastid, 48 hour incubation
Conditions: P. falciparum luciferase growth in erythrocytes; series mostly up to 28.7 µM; activity change, negative = inhibition: at the top concentration
In short: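 Compounds are pin-transferred into medium, infected erythrocytes (2% hematocrit, 0.1% parasitemia final) are added, and plates sit one parasite generation at 37 C in 5% CO2. Detection reagent is then added and luminescence measured.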
% is scaled to controls: 0 for no effect and ±100 for the full control effect; potency is read from the fitted curve at half-maximal effect; tags tell the direction and shape of the fitted curve.

Compound	activity change, negative = inhibition	Potency
OCCN(Cc1ccccc1)Cc1ccc(F)c(F)c1	inactive: -1.13%	–
COc1cc2c(cc1OC)CN(CC(=O)NC(=O)NC1CCCCC1)CC2	inactive: -22.5%	–
Cc1nn(-c2ccccc2)c(N)c1N=Nc1cccc(S(=O)(=O)N2CCOCC2)c1	–	inconclusive [inhibitor, single point]
CN(CC(=O)Nc1c(Cl)cccc1Cl)C(=O)CC1OC(=O)c2ccccc21 (configuration not stated)	–	inconclusive [inhibitor, single point]
COCCOC(=O)c1[nH]c2c(c1C)C(=O)CC(c1cccs1)C2 (configuration not stated)	–	inconclusive [inhibitor, single point]
Cc1coc(NC(=O)CSc2nc(-c3ccncc3)cc(C(F)(F)F)c2C#N)n1	–	inconclusive [inhibitor, single point]
CCOC(=O)C1=C(C)NC2=C(C(=O)CC(c3ccc(OC)c(OC)c3)C2)C1c1ccc(C)o1 (configuration not stated)	–	active: 1.17 µM
Cc1ccc(C(=O)c2c(NC(=O)c3ccccc3C)sc(C)c2C)cc1	–	inconclusive [inhibitor, single point]
O=C(CN1CCN(c2ccc(O)cc2)CC1)N(C1CC1)C1CCS(=O)(=O)C1 (configuration not stated)	–	inconclusive [inhibitor, single point]
CSCC[C@H](NC(=O)[C@H](Cc1ccccc1)n1c(=O)[nH]c2ccccc2c1=O)C(=O)N[C@@H](Cc1ccccc1)C(=O)O	inactive: 6.72%	–
CC1(C)CC1C(=O)Nc1ccc([N+](=O)[O-])cc1Br (configuration not stated)	inactive: 18.7%	–
CCOc1cc(/C=C2\CCC/C(=C\c3cc(Cl)c(O)c(OCC)c3)C2=O)cc(Cl)c1O	–	inconclusive [inhibitor, full curve, poor fit]
O=C(C[n+]1cc(-c2ccccc2)n2c1CCC2)Nc1nc(-c2ccccc2)cs1	–	inconclusive [inhibitor, single point]
Cc1nn(-c2ccccc2)c(Cl)c1C(=O)NCc1ccccc1F	–	inconclusive [inhibitor, partial curve, poor fit]
CCOC(=O)c1ccc(CC(=O)c2oc3cc(O)ccc3c2C)o1	–	inconclusive [inhibitor, single point]
CCOC(=S)SSC(=S)OCC	inactive: -0.691%	–
O=C(Nc1ccccc1-c1nnc(SCc2ccc(Cl)cc2Cl)o1)c1ccccc1	inactive: -3.14%	–
NC(=O)C(=O)NN=C1CCC(c2ccccc2)CC1 (configuration not stated)	inactive: -13.9%	–
CC(=O)Cn1ncc(N2CCOCC2)c(Cl)c1=O	inactive: 38.5%	–
Cc1cc(C(=O)N2CC(C)CC(C)C2)c(C)o1 (configuration not stated)	–	inconclusive [inhibitor, single point]
CCn1nc(C)cc1C(=O)N1CCc2c([nH]c3ccccc23)C1c1cc(F)ccc1F (configuration not stated)	–	inconclusive [inhibitor, partial curve]
CCCCCNC(=O)CCc1ccccc1	inactive: 12.1%	–
CCOC(=O)c1ccc(N2C(=O)CC(N3CC=C(c4ccc(F)cc4)CC3)C2=O)cc1 (configuration not stated)	–	inconclusive [inhibitor, single point]
CCCSc1nnc(NC(=O)Nc2ccccc2OC)s1	inactive: 18.3%	–

Compound	activity change, negative = inhibition	Potency
COc1ccc(-c2cc(C(F)(F)F)n3nc(C(=O)N4CCOCC4)c(Cl)c3n2)cc1	–	inconclusive [inhibitor, single point]
COc1ccc2nc3c(c(-c4ccccc4)c2c1)CCC3	inactive: 12.1%	–
COc1ccc(N2C3=[N+](CCCC3)CC2(C)O)cc1 (configuration not stated)	–	inconclusive [inhibitor, single point]
Cc1ccc(N2CCN(C(=O)NC3CCCCC3)CC2)c(C)c1	–	inconclusive [inhibitor, single point]
CSc1ccc(CN(C)C(=O)c2cccc(S(=O)(=O)NCc3ccccc3)c2)cc1	–	inconclusive [inhibitor, single point]
O=C(N/N=C\c1ccccc1OCc1ccccc1)c1ccco1	–	active: 8.28 µM
CCOC(=O)CSc1nc2sc3c(c2c(=O)n1C1CCCCC1)CCN(C)C3	–	active: 1.47 µM
COC(=O)C1=C(C)Nc2[nH]c(=S)[nH]c(=O)c2C1c1ccc(O)cc1 (configuration not stated)	inactive: -27%	–
COc1cccc(NC(=O)CSc2nc3ccccc3nc2N2CCCC2)c1	–	inconclusive [inhibitor, partial curve, poor fit]
C=CCn1c2ccccc2c(=O)c2cc(C#Cc3ccccn3)ccc21	–	inconclusive [inhibitor, single point]
COC(=O)c1ccc(COC(=O)CCNS(=O)(=O)c2ccc(C)c(C)c2)cc1	inactive: -10.5%	–
CC(=O)Cn1c(CN2CCCC2)nc2ccccc2c1=O	inactive: 9.74%	–
CCOc1ccccc1N1CCN(Cc2cccc(OC)c2O)CC1	–	active: 3.29 µM
CCN(CC)S(=O)(=O)c1ccc(-c2nnc(SCC(=O)Nc3ccc(OC)c(OC)c3)o2)cc1	–	inconclusive [inhibitor, partial curve, poor fit]
O=C(/C=C1\SC(=O)N(CC(=O)Nc2ccc(F)cc2)C1=O)Nc1ccc(Cl)cc1	inactive: 93.4%	–
CCS(=O)(=O)c1ccc2oc(SCC(=O)Nc3ccc(OC)c(OC)c3)nc2c1	inactive: -11.7%	–
CCCC1=C(C(=O)OCC)C(c2sccc2C)n2ncnc2N1 (configuration not stated)	–	inconclusive [inhibitor, partial curve]
CCN(CC)CCCNC(=S)N1CCC(c2nc3ccccc3[nH]2)CC1	–	inconclusive [inhibitor, single point]
COc1cccc(CNC(=O)CCC2CCCN(c3cc(C)nc(N4CCCC4)n3)C2)c1 (configuration not stated)	–	inconclusive [inhibitor, partial curve, poor fit]
O=[N+]([O-])c1cccnc1N1CCCCC1	inactive: 20.4%	–
Cc1c([N+](=O)[O-])c(C(=O)Sc2ccc(Br)cc2)nn1C	–	inconclusive [inhibitor, single point]
COC(=O)c1c(C)nn(-c2ccc(OC(F)(F)F)cc2)c1-c1snnc1C	–	inconclusive [inhibitor, partial curve]
CCCn1c(SCC(=O)N2CCN(c3ccc(OC)cc3)CC2)nc2c1c(=O)n(C)c(=O)n2C	–	inconclusive [inhibitor, single point]
